Here are results for five sequences from the supplement of paper PMC11246515.

± gives the standard deviation of the averaged measurements.

The nature of the series: total protein half-life in vivo (active degradation + dilution); higher = more stable protein.
Setting [1] is: E. coli NCM3722 delta-clpP delta-lon delta-hslV, growth: N-lim chemostat, doubling time 6 h.
The mark [2] stands for this setting: E. coli NCM3722 delta-clpP, growth: N-lim chemostat, doubling time 6 h.
Setting [3] is: E. coli NCM3722 delta-hslV, growth: N-lim chemostat, doubling time 6 h.
Where [4] appears, read: E. coli NCM3722 delta-lon, growth: N-lim chemostat, doubling time 6 h.
[5] abbreviates: E. coli NCM3722 delta-smpB, growth: N-lim chemostat, doubling time 6 h.
The mark [6] stands for this setting: wild type E. coli NCM3722, growth: C-lim chemostat, doubling time 3 h.
Where [7] appears, read: wild type E. coli NCM3722, growth: C-lim chemostat, doubling time 6 h.
Where [8] appears, read: wild type E. coli NCM3722, growth: C-lim chemostat, doubling time 12 h.
Where [9] appears, read: wild type E. coli NCM3722, growth: N-lim chemostat, doubling time 6 h.
Setting [10] is: wild type E. coli NCM3722, growth: N-lim chemostat, doubling time 12 h.
Setting [11] is: wild type E. coli NCM3722, growth: P-lim chemostat, doubling time 6 h.
Setting [12] is: wild type E. coli NCM3722, growth: P-lim chemostat, doubling time 12 h.

As for “MSATKLTRREQRARAQHFIDTLEGTAFPNSKRIYITGTHPGVRVPMREIQLSPTLIGGSKEQPQYEENEAIPVYDTSGPYGDPQIAINVQQGLAKLRQPWIDARGDTEELTVRSSDYTKARLADDGLDELRFSGVLTPKRAKAGRRVTQLHYARQGIITPEMEFIAIRENMGRERIRSEVLRHQHPGMSFGAHLPENITAEFVRDEVAAGRAIIPANINHPESEPMIIGRNFLVKVNANIGNSAVTSSIEEEVEKLVWSTRWGADTVMDLSTGRYIHETREWILRNSPVPIGTVPIYQALEKVNGIAEDLTWEAFRDTLLEQAEQGVDYFTIHAGVLLRYVPMTAKRLTGIVSRGGSIMAKWCLSHHQENFLYQHFREICEICAAYDVSLSLGDGLRPGSIQDANDEAQFAELHTLGELTKIAWEYDVQVMIEGPGHVPMQMIRRNMTEELEHCHEAPFYTLGPLTTDIAPGYDHFTSGIGAAMIGWFGCAMLCYVTPKEHLGLPNKEDVKQGLITYKIAAHAADLAKGHPGAQIRDNAMSKARFEFRWEDQFNLALDPFTARAYHDETLPQESGKVAHFCSMCGPKFCSMKISQEVRDYAATQTIEMGMADMSENFRARGGEIYLRKEEA”, the “total protein half-life in vivo” value under setting [1] is 4.94 ± 0.62 h; the “total protein half-life in vivo” value under setting [2] worked out at 3.13 ± 0.41 h; the “total protein half-life in vivo” value under setting [3] is 1.1 ± 0.19 h; the “total protein half-life in vivo” value under setting [4] turned out to be 1.49 ± 0.14 h; the “total protein half-life in vivo” value under setting [5] worked out at 1.08 ± 0.037 h; the “total protein half-life in vivo” value under setting [6] came out at 1.41 ± 0.15 h. Further, the “total protein half-life in vivo” value was 2.094 ± 0.007 h under setting [7]; 2.78 ± 0.31 h under setting [8]; 1.28 ± 0.075 h under setting [9]; 1.52 ± 0.023 h under setting [10]; 1.77 ± 0.33 h under setting [11]; 3.1 ± 0.83 h under setting [12].
“MITGIQITKAANDDLLNSFWLLDSEKGEARCIVAKAGYAEDEVVAVSKLGDIEYREVPVEVKPEVRVEGGQHLNVNVLRRETLEDAVKHPEKYPQLTIRVSGYAVRFNSLTPEQQRDVIARTFTESL”: the “total protein half-life in vivo” value by setting is: under setting [1], 5.3 ± 0.86 h; under setting [2], 2.93 ± 0.1 h; under setting [3], 1.53 ± 0.26 h; under setting [4], 2.37 ± 0.12 h; under setting [5], 1.49 ± 0.1 h; under setting [6], 1.46 ± 0.044 h. Besides, the “total protein half-life in vivo” value runs as follows: under setting [7], 2.17 ± 0.087 h; under setting [8], 2.76 ± 0.52 h; under setting [9], 1.64 ± 0.2 h; under setting [10], 2.28 ± 0.2 h; under setting [11], 2.63 ± 0.29 h; under setting [12], 5.22 ± 0.96 h.
As to “MLKRIKIVTSLLLVLAVFGLLQLTSGGLFFNALKNDKENFTVLQTIRQQQSTLNGSWVALLQTRNTLNRAGIRYMMDQNNIGSGSTVAELMESASISLKQAEKNWADYEALPRDPRQSTAAAAEIKRNYDIYHNALAELIQLLGAGKINEFFDQPTQGYQDGFEKQYVAYMEQNDRLHDIAVSDNNASYSQAMWILVGVMIVVLAVIFAVWFGIKASLVAPMNRLIDSIRHIAGGDLVKPIEVDGSNEMGQLAESLRHMQGELMRTVGDVRNGANAIYSGASEIATGNNDLSSRTEQQAASLEETAASMEQLTATVKQNAENARQASHLALSASETAQRGGKVVDNVVQTMRDISTSSQKIADIISVIDGIAFQTNILALNAAVEAARAGEQGRGFAVVAGEVRNLAQRSAQAAREIKSLIEDSVGKVDVGSTLVESAGETMAEIVSAVTRVTDIMGEIASASDEQSRGIDQVGLAVAEMDRVTQQNAALVEESAAAAAALEEQASRLTEAVAVFRIQQQQRETSAVVKTVTPAAPRKMAVADSEENWETF”, the “total protein half-life in vivo” value is more than 8 h under setting [5]; 2.501 ± 0.017 h under setting [6]; 4.53 ± 0.32 h under setting [7]; 7.03 ± 2.4 h under setting [8]; 4.48 h under setting [11].
As for “MHIGQALDLVSRYDSLRNPLTSLGDYLDPELISRCLAESGTVTLRKRRLPLEMMVWCIVGMALERKEPLHQIVNRLDIMLPGNRPFVAPSAVIQARQRLGSEAVRRVFTKTAQLWHNATPHPHWCGLTLLAIDGVFWRTPDTPENDAAFPRQTHAGNPALYPQVKMVCQMELTSHLLTAAAFGTMKNSENELAEQLIEQTGDNTLTLMDKGYYSLGLLNAWSLAGEHRHWMIPLRKGAQYEEIRKLGKGDHLVKLKTSPQARKKWPGLGNEVTARLLTVTRKGKVCHLLTSMTDAMRFPGGEMGDLYSHRWEIELGYREIKQTMQRSRLTLRSKKPELVEQELWGVLLAYNLVRYQMIKMAEHLKGYWPNQLSFSESCGMVMRMLMTLQGASPGRIPELMRDLASMGQLVKLPTRRERAFPRVVKERPWKYPTAPKKSQSVA”, the “total protein half-life in vivo” value runs as follows: under setting [1], 5.37 h; under setting [2], 4.69 h; under setting [3], 3.43 h; under setting [5], 3.65 ± 0.31 h; under setting [6], 2.3 ± 0.24 h; under setting [8], 8.37 h. Further, the “total protein half-life in vivo” value under setting [11] turned out to be 4.8 h.
“MQHKLLINGELVSGEGEKQPVYNPATGDVLLEIAEASAEQVDAAVRAADAAFAEWGQTTPKVRAECLLKLADVIEENGQVFAELESRNCGKPLHSAFNDEIPAIVDVFRFFAGAARCLNGLAAGEYLEGHTSMIRRDPLGVVASIAPWNYPLMMAAWKLAPALAAGNCVVLKPSEITPLTALKLAELAKDIFPAGVINILFGRGKTVGDPLTGHPKVRMVSLTGSIATGEHIISHTASSIKRTHMELGGKAPVIVFDDADIEAVVEGVRTFGYYNAGQDCTAACRIYAQKGIYDTLVEKLGAAVATLKSGAPDDESTELGPLSSLAHLERVGKAVEEAKATGHIKVITGGEKRKGNGYYYAPTLLAGALQDDAIVQKEVFGPVVSVTPFDNEEQVVNWANDSQYGLASSVWTKDVGRAHRVSARLQYGCTWVNTHFMLVSEMPHGGQKLSGYGKDMSLYGLEDYTVVRHVMVKH”: the “total protein half-life in vivo” value came to 4.71 ± 0.69 h under setting [1]; 3.61 ± 0.12 h under setting [2]; 3.57 ± 0.1 h under setting [3]; 3.8 ± 0.14 h under setting [4]; 3.54 ± 0.27 h under setting [5]; 2.87 ± 0.12 h under setting [6]. Also, the “total protein half-life in vivo” value was determined as 5.41 ± 0.44 h under setting [7]; 8.728 ± 0.035 h under setting [8]; 3.44 ± 0.1 h under setting [9]; 5.229 ± 0.048 h under setting [10]; 5.42 ± 0.3 h under setting [11]; 10.2 ± 0.2 h under setting [12].
